Laboratory results reported in a collection of fitness landscapes (doi:10.1126/science.1257360).
The list shows a part of the results.

B1: PhoQ; a variant is named by its letters at X, in order, P23837 (parent)
chain: MKKLLRLFFPLSLRVRFLLATAAVVLVLSLAYGMVALIGYSVSFDKTTFRLLRGESNLFYTLAKWENNKLHVELPENIDKQSPTMTLIYDENGQLLWAQRDVPWLMKMIQPDWLKSNGFHEIEADVNDTSLLLSGDHSIQQQLQEVREDDDDAEMTHSVAVNVYPATSRMPKLTIVVVDTIPVELKSSYMVWSWFIYVLSANLLLVIPLLWVAAWWSLRPIEALAKEVRELEEHNRELLNPATTRELTSLVRNLNRLLKSERERYDKYRTTLTDLTHSLKTPLXXLQXXLRSLRSEKMSVSDAEPVMLEQISRISQQIGYYLHRASMRGGTLLSRELHPVAPLLDNLTSALNKVYQRKGVNISLDISPEISFVGEQNDFVEVMGNVLDNACKYCLEFVEISARQTDEHLYIVVEDDGPGIPLSKREVIFDRGQRVDTLRPGQGVGLAVAREITEQYEGKIVAGESMLGGARMEVIFGRQHSAPKDE

Variants of: B1
Assay: enrichment ratio after two sorts for PhoP signalling (ratio (wild type AVST 3.29)); higher = more functional
Conditions: with PhoP (E. coli)

| Variant | enrichment ratio |
| --- | --- |
| SFQQ | ≤ 0.25 |
| IMDY | ≤ 0.25 |
| RKRN | ≤ 0.25 |
| GKSC | ≤ 0.25 |
| QPMD | ≤ 0.25 |
| YYIK | ≤ 0.25 |
| GNKP | ≤ 0.25 |
| WPWG | ≤ 0.25 |
| ICAD | ≤ 0.25 |
| NINP | ≤ 0.25 |
| AIAE | 7.09 |
| HWDK | ≤ 0.25 |
| PFAP | ≤ 0.25 |
| KKFI | ≤ 0.25 |
| PMVQ | ≤ 0.25 |
| VFKL | ≤ 0.25 |
| ERDY | ≤ 0.25 |
| MAFS | 1.27 |
| YLSC | 0.299 |
| VSMD | ≤ 0.25 |
| LREI | ≤ 0.25 |
| GLRK | ≤ 0.25 |
| NTDQ | ≤ 0.25 |
| LNQN | ≤ 0.25 |
| KFTN | ≤ 0.25 |
| EFRT | ≤ 0.25 |

| Variant | enrichment ratio |
| --- | --- |
| IQVS | ≤ 0.25 |
| HNKL | ≤ 0.25 |
| KVVY | ≤ 0.25 |
| ERPG | ≤ 0.25 |
| VEWG | 18.1 |
| ALTR | ≤ 0.25 |
| WYPP | ≤ 0.25 |
| MNVQ | ≤ 0.25 |
| CSLC | 9.89 |
| QGNE | ≤ 0.25 |
| MQRT | ≤ 0.25 |
| DCPP | ≤ 0.25 |
| TWHK | ≤ 0.25 |
| KYCI | ≤ 0.25 |
| QSAA | ≤ 0.25 |
| INGF | ≤ 0.25 |
| RYAI | ≤ 0.25 |
| DMVD | ≤ 0.25 |
| INYG | ≤ 0.25 |
| GRSA | ≤ 0.25 |
| VADN | ≤ 0.25 |
| MAYW | ≤ 0.25 |
| NLKH | ≤ 0.25 |
| IGQD | ≤ 0.25 |
| REID | ≤ 0.25 |
| IDGT | ≤ 0.25 |

| Variant | enrichment ratio |
| --- | --- |
| VLFL | ≤ 0.25 |
| TRHL | ≤ 0.25 |
| KKNT | ≤ 0.25 |
| HDYQ | ≤ 0.25 |
| TIET | ≤ 0.25 |
| WSPT | ≤ 0.25 |
| MKTM | ≤ 0.25 |
| VRKG | ≤ 0.25 |
| NPEV | ≤ 0.25 |
| VYML | ≤ 0.25 |
| WRAT | ≤ 0.25 |
| NCGS | ≤ 0.25 |
| LQAN | ≤ 0.25 |
| DLHF | ≤ 0.25 |
| ETIN | ≤ 0.25 |
| LDLK | ≤ 0.25 |
| VWPK | ≤ 0.25 |
| YTSS | ≤ 0.25 |
| ICHE | ≤ 0.25 |
| QIVE | ≤ 0.25 |
| KYAD | ≤ 0.25 |
| ANTR | ≤ 0.25 |
| PCTS | ≤ 0.25 |
| DPSA | ≤ 0.25 |
| WRNH | ≤ 0.25 |
| NQNT | ≤ 0.25 |

| Variant | enrichment ratio |
| --- | --- |
| GWSM | ≤ 0.25 |
| VYSG | ≤ 0.25 |
| DFNM | ≤ 0.25 |
| EQRS | ≤ 0.25 |
| YVYM | ≤ 0.25 |
| EIEL | ≤ 0.25 |
| HKDP | ≤ 0.25 |
| IVFN | ≤ 0.25 |
| KEVP | ≤ 0.25 |
| VPVY | ≤ 0.25 |
| RKNW | ≤ 0.25 |
| IHQH | ≤ 0.25 |
| NLYS | ≤ 0.25 |
| QHPM | ≤ 0.25 |
| QYMV | ≤ 0.25 |
| QIIK | ≤ 0.25 |
| PARM | ≤ 0.25 |
| FCCP | ≤ 0.25 |
| REIT | ≤ 0.25 |
| EDPN | ≤ 0.25 |
| LCCS | ≤ 0.25 |
| QYHI | 0.38 |
| LRSF | ≤ 0.25 |
| QISM | ≤ 0.25 |
| GASW | ≤ 0.25 |
| KGYP | ≤ 0.25 |

| Variant | enrichment ratio |
| --- | --- |
| DCLP | ≤ 0.25 |
| PWGH | ≤ 0.25 |
| IPFF | ≤ 0.25 |
| HMFY | ≤ 0.25 |
| AHIK | ≤ 0.25 |
| GEFD | ≤ 0.25 |
| PMCK | ≤ 0.25 |
| MPAV | ≤ 0.25 |
| MQTS | ≤ 0.25 |
| VDSM | ≤ 0.25 |
| LDQM | ≤ 0.25 |
| DPSK | ≤ 0.25 |
| HRDY | ≤ 0.25 |
| ICEI | ≤ 0.25 |
| KAQI | ≤ 0.25 |
| EMYE | ≤ 0.25 |
| FRCI | ≤ 0.25 |
| RNLV | ≤ 0.25 |
| DNYI | ≤ 0.25 |
| FCHG | ≤ 0.25 |
| EPPP | ≤ 0.25 |
| SNDK | ≤ 0.25 |
| NKNK | ≤ 0.25 |
| HTFS | ≤ 0.25 |
| EEWF | ≤ 0.25 |
| TRMF | ≤ 0.25 |

| Variant | enrichment ratio |
| --- | --- |
| GQGH | ≤ 0.25 |
| DAIA | ≤ 0.25 |
| ACLQ | 11.6 |
| KECC | ≤ 0.25 |
| RYFI | ≤ 0.25 |
| SIYP | ≤ 0.25 |
| FCWP | ≤ 0.25 |
| VADD | ≤ 0.25 |
| HDKS | ≤ 0.25 |
| WRPK | ≤ 0.25 |
| VSPM | ≤ 0.25 |
| NVLL | ≤ 0.25 |
| LHAT | ≤ 0.25 |
| VEKG | ≤ 0.25 |
| FYMC | ≤ 0.25 |
| EGCA | ≤ 0.25 |
| FDHH | ≤ 0.25 |
| QADS | 3.89 |
| NDLN | ≤ 0.25 |
| LKIS | ≤ 0.25 |
| ICHY | ≤ 0.25 |
| SRIH | ≤ 0.25 |
| TERP | ≤ 0.25 |
